# In the supplement of paper PMC4166925:
# ± gives the standard deviation of the averaged measurements. Over roughly 33,000 sequences, “E-score (dimensionless, -0.5 to 0.5)” has its median near -0.046; the highest 2% begin near 0.36. The list shows a part of the results.
# System: T1, SpTbr T-box DNA-binding domain (GST fusion)
# T1 sequence: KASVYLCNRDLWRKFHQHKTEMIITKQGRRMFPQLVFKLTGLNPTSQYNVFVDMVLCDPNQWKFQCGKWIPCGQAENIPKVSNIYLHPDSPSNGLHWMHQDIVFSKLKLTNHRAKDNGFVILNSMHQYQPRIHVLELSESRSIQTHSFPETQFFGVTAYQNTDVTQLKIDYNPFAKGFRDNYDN
# Test: PBM E-score of 8-mer (E-score (dimensionless, -0.5 to 0.5)); Tbr is Tbrain of the sea star Patiria miniata (Pm) or the sea urchin Strongylocentrotus purpuratus (Sp); higher = stronger binding preference; most listed sequences are background and not binding sites
# Conditions: the construct has about 5 more residues each side
# How it was run: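 Using the Universal PBM Analysis Suite, every ungapped 8-mer received an enrichment E-score averaged over duplicate arrays. Probe intensities came from double-stranded Universal Agilent oligonucleotide arrays incubated with 200 nM GST-fused Tbr T-box DNA-binding domain in PBS (pH 7.5). That protein was expressed in BL21 E. coli at 20 °C and purified by glutathione affinity chromatography.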
row,Sequence,PBM E-score of 8-mer
1,CGACGGCA,0.0431 ± 0.011
2,GGAAGTAA,-0.0859 ± 0.036
3,CGCTGGAA,0.0154 ± 0.026
4,ACCATGTC,-0.0105 ± 0.024
5,CGGTTTTA,-0.0564 ± 0.011
6,CATTCCCC,-0.0829 ± 0.059
7,GCGTGACA,0.345 ± 0.023
8,CTGCTATA,0.00769 ± 0.006
9,CCTAAGCA,-0.0497 ± 0.061
10,GAAATGCA,-0.0739 ± 0.019
11,GCGCTGCC,0.0691 ± 0.025
12,CAATCGAG,0.0295 ± 0.067
13,TCTGCTCA,0.127 ± 0.027
14,CAAAAGGG,-0.186 ± 0.085
15,GAAAAGAC,-0.0794 ± 0.02
16,CGCCTTAC,0.264 ± 0.025
17,CTAAGACA,-0.048 ± 0.012
18,GACAAATC,0.0909 ± 0.037
19,GAAAAAAA,0.0699 ± 0.098
20,CCGGTTTC,0.0518 ± 0.065
21,AGGCCCTG,-0.0846 ± 0.015
22,AGCAGTCC,-0.132 ± 0.093
23,CGCGCTGA,0.124 ± 0.052
24,GACATTCA,0.0899 ± 0.053
25,ATAGATAC,-0.333 ± 0.018

row,Sequence,PBM E-score of 8-mer
1,GTACACGA,-0.243 ± 0.064
2,CCGTATGA,-0.135 ± 0.026
3,TTACTGAA,-0.217 ± 0.03
4,GTCATAAC,0.0488 ± 0.059
5,CCACCGGG,-0.0628 ± 0.011
6,CATTTAAA,-0.257 ± 0.021
7,CCGGTTTA,-0.198 ± 0.0051
8,AGGCCAGA,-0.174 ± 0.045
9,AAAAGTGC,0.269 ± 0.044
10,GAATCATA,-0.0556 ± 0.042
11,CATCACTA,0.0425 ± 0.0079
12,AACCCGCG,0.227 ± 0.049
13,CGGTGACA,0.326 ± 0.026
14,AACATGTG,0.274 ± 0.059
15,CATAGCAC,0.273 ± 0.0041
16,CCCCGACG,-0.0866 ± 0.12
17,CTAAACAG,3e-05 ± 0.024
18,CTAGACGC,-0.0851 ± 0.0066
19,CTAAAGAG,-0.218 ± 0.035
20,ATTACTTA,-0.154 ± 0.05
21,CTTATTTC,0.0455 ± 0.019
22,CGTTACCA,0.17 ± 0.018
23,CCGTACCA,-0.0725 ± 0.034
24,GGCAGGAC,-0.0928 ± 0.014
25,GCCTCCCA,-0.0973 ± 0.04

row,Sequence,PBM E-score of 8-mer
1,GAACGACA,0.17 ± 0.023
2,CACTGTAC,-0.0249 ± 0.028
3,CATAATGC,-0.0613 ± 0.012
4,ACGTTGCT,-0.0694 ± 0.043
5,GATTTACA,0.17 ± 0.015
6,AGTTTTTG,0.0492 ± 0.0037
7,GCACCGAC,0.0373 ± 0.046
8,CACTACGA,-0.0143 ± 0.053
9,GAAGCTGA,-0.0499 ± 0.083
10,GGATTAGA,-0.284 ± 0.0059
11,AGATAACG,0.082 ± 0.055
12,TCGATTCA,0.114 ± 0.093
13,CCTCATCA,-0.163 ± 0.083
14,GTTACAGA,-0.00877 ± 0.033
15,ATCTCTCG,0.0419 ± 0.035
16,CCCACGCC,0.163 ± 0.014
17,ATACGAAT,-0.2 ± 0.048
18,GGGAATTA,-0.225 ± 0.0098
19,GACGCCTC,0.328 ± 0.017
20,CACTCTAA,0.0396 ± 0.076
21,ACCGTTAC,0.0751 ± 0.062
22,GCAGTTAC,-0.00728 ± 0.006
23,CATTATAG,-0.173 ± 0.051
24,GTAAAGAA,0.0185 ± 0.081
25,CGAATGAC,0.145 ± 0.038

row,Sequence,PBM E-score of 8-mer
1,AAGAAGGC,0.0046 ± 0.026
2,CGTAGCTC,-0.189 ± 0.013
3,CATTTAAG,-0.167 ± 0.035
4,CACTACTA,-0.115 ± 0.029
5,AAAGGCAA,-0.0491 ± 0.037
6,ATTCGCAA,0.29 ± 0.016
7,CACCCATG,0.153 ± 0.038
8,GGGGTCTA,-0.219 ± 0.058
9,GTATCCCA,-0.3 ± 0.018
10,GCATAGCA,-0.0561 ± 0.049
11,AAGTTTAT,-0.141 ± 0.074
12,AGGTGCAC,0.125 ± 0.049
13,GACCTTGC,-0.153 ± 0.0056
14,ACAGAAAA,-0.236 ± 0.1
15,AGATCATA,-0.24 ± 0.0053
16,CCGCAAGA,-0.0245 ± 0.026
17,AATATAGA,0.0573 ± 0.0045
18,AAACTCCT,-0.113 ± 0.064
19,AGTGCGTG,0.144 ± 0.027
20,GACCGAAC,-0.115 ± 0.11
21,ATGAGACA,-0.0584 ± 0.063
22,GCATCGCC,0.0675 ± 0.09
23,GGCAAAGA,-0.18459 ± 9.9e-05
24,ACACGTCG,0.372 ± 0.0071
25,GAGTGGCC,0.0111 ± 0.045

row,Sequence,PBM E-score of 8-mer
1,AATGGTTC,-0.0605 ± 0.035
2,AAGGTTAT,0.0219 ± 0.0079
3,AACCGAGT,-0.143 ± 0.071
4,CAAAGCTG,0.0347 ± 0.069
5,CCTGCGTA,-0.0822 ± 0.008
6,AACTGTTA,0.284 ± 0.03
7,AGTAGTAC,-0.311 ± 0.024
8,CAATAAGC,-0.105 ± 0.057
9,ATATGAGC,-0.256 ± 0.057
10,GGCATACC,-0.154 ± 0.041
11,CGTCGAGC,0.0598 ± 0.075
12,TAACCCAA,-0.0168 ± 0.03
13,TCATGGCA,0.0397 ± 0.019
14,CCCAATTC,-0.184 ± 0.011
15,AGTAAGGA,-0.116 ± 0.045
16,GGCAGGGA,-0.182 ± 0.062
17,ACGCGACC,0.0679 ± 0.048
18,CAATCGCG,0.325 ± 0.016
19,GTGACTTA,-0.0123 ± 0.039
20,ACGCCTGA,0.142 ± 0.019
21,CATTTGGC,0.0294 ± 0.017
22,AAGGTAAG,-0.251 ± 0.08
23,TATGCGCA,-0.327 ± 0.016
24,ATGACTTC,-0.084 ± 0.07
25,CGCAAGCC,-0.0145 ± 0.012

row,Sequence,PBM E-score of 8-mer
1,ACTTTCCT,0.126 ± 0.0083
2,GACGGCAA,0.057 ± 0.0096
3,AAAACTGG,0.0567 ± 0.055
4,ACCTCGCC,0.283 ± 0.026
5,ACAGCACT,0.15 ± 0.031
6,TATACATA,-0.0604 ± 0.045
7,CGAAGCAC,-0.0831 ± 0.01
8,CGGGACAC,0.153 ± 0.012
9,CAATGTTA,-0.0418 ± 0.036
10,AACTAATT,-0.221 ± 0.043
11,CGTCGTTA,0.125 ± 0.074
12,GCTTTCTA,-0.0577 ± 0.0058
13,CACACAAG,0.179 ± 0.038
14,GGCGACCA,-0.0782 ± 0.14
15,GGCTGTTA,0.161 ± 0.029
16,GTAGAACA,-0.0945 ± 0.031
17,ACAGCATG,0.0974 ± 0.12
18,AATAGCCT,-0.0813 ± 0.078
19,GCTTTAGA,-0.0973 ± 0.021
20,AGGATATA,-0.067 ± 0.029
21,CCAGTGTA,-0.0905 ± 0.051
22,CAAGCAAA,-0.0951 ± 0.012
23,CCATCTGA,0.00464 ± 0.024
24,TTCAAAAA,-0.241 ± 0.043
25,TAAGCTTA,-0.203 ± 0.0058

row,Sequence,PBM E-score of 8-mer
1,CACACATC,0.4 ± 0.013
2,GTCGGACA,-0.171 ± 0.024
3,TGGAGACA,-0.0854 ± 0.0011
4,TCAGTTAA,-0.0462 ± 0.038
5,ACTGCATG,-0.118 ± 0.057
6,AACGCCGC,0.113 ± 0.0063
7,CCCTATAG,-0.147 ± 0.04
8,GTAGTAAC,0.0283 ± 0.036
9,CGTTTACC,-0.07813 ± 0.00062
10,GATCCAAC,-0.0248 ± 0.034
11,CTGAGCAG,-0.159 ± 0.0028
12,CTTACAAC,0.0459 ± 0.067
13,AACTTCCT,-0.109 ± 0.014
14,CAGTAGAA,-0.0894 ± 0.0075
15,CGGGTGAC,0.258 ± 0.051
16,GCGACGCC,0.293 ± 0.023
17,AGAATATG,-0.0366 ± 0.062
18,GCCGTCAC,0.291 ± 0.041
19,CTATTCTA,-0.092 ± 0.0036
20,CACAAGGA,-0.0844 ± 0.011
21,ACTGGGGG,-0.282 ± 0.075
22,AATTGCGG,-0.0334 ± 0.017
